Data on 88 compounds can be found in publication PMC4336329 (PLoS ONE, 2015).

About 2,200 (0.71%) of roughly 310,000 compounds showed an effect of 50% or more. Effects have a minus sign here. This is one part of the list.

Chain of human ether-à-go-go-related gene (hERG) potassium channel (Q12809 whole entry, looked up): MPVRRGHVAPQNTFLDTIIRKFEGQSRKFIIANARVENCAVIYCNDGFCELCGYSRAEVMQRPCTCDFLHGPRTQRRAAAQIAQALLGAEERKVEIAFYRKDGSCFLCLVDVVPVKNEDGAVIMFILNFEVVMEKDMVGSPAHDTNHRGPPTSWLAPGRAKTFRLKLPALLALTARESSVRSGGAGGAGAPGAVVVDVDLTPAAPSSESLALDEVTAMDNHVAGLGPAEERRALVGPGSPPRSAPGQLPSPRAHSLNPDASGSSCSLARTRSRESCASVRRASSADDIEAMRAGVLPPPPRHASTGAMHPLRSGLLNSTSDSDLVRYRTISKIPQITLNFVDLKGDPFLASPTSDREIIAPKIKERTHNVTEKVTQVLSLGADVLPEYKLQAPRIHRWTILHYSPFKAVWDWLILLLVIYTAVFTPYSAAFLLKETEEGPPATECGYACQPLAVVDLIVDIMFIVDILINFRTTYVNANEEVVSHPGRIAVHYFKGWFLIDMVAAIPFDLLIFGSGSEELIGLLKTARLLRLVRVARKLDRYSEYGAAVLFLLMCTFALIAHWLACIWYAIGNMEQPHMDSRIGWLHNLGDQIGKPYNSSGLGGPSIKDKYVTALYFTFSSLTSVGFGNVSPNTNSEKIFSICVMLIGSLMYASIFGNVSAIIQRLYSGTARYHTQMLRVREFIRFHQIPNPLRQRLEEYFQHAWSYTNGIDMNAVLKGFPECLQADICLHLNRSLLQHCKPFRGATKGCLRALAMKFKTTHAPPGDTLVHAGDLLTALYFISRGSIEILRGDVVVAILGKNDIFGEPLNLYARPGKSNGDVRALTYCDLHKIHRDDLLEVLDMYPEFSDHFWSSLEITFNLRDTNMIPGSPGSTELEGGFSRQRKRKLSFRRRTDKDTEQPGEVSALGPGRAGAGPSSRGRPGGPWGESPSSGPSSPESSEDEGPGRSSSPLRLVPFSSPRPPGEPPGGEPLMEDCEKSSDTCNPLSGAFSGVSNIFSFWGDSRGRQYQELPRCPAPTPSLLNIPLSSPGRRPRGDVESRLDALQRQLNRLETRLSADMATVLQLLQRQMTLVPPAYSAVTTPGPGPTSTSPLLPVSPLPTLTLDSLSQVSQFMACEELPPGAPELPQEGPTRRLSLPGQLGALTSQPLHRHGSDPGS

This assay addresses human ether-à-go-go-related gene (hERG) potassium channel (human, UniProt Q12809). Description: primary screen, population patch clamp on CHO cells stably expressing hERG.
As for `COc1cc(/C=N/N(C)C2=NS(=O)(=O)c3ccccc32)cc(OC)c1OC`, the “hERG current change (%, negative = inhibition) at 1uM” value is 15.4%.
Take `Cn1cc(NC(=O)Nc2ccc(C(F)(F)F)cc2)c(C(F)(F)F)n1`: the “hERG current change (%, negative = inhibition) at 1uM” value turned out to be 11.9%.
On to `COc1cccc(C(=O)C[n+]2cccc3cc(OC)ccc32)c1.[Br-]`, for which the “hERG current change (%, negative = inhibition) at 1uM” value is listed as 17.7%.
For `COC(=O)c1ccc(CC(=O)c2nc3ccccc3s2)cc1`, the “hERG current change (%, negative = inhibition) at 1uM” value stood at 17.1%.
Under `Cc1ccc(NC(=O)COC(=O)c2ccc(=O)n(Cc3ccccc3)n2)cc1F` stands 12.2%; under `C=CCn1c(SCC(=O)N(C)C2CCS(=O)(=O)C2)nc2ccccc2c1=O` (stereo not shown), -36.1%.
Regarding `COc1ccc(C(=O)NC2CCCN(Cc3ccc(Cl)cc3)C2)c(OC)c1` (stereo not shown), the “hERG current change (%, negative = inhibition) at 1uM” value is recorded as -4.67%.
In the case of `CC(=O)Nc1nonc1NC(=O)CSc1nc2ccccc2o1`, the “hERG current change (%, negative = inhibition) at 1uM” value is on record as -2.2%.
On to `Cc1cc(C(=O)NCCc2ccccc2)ccc1[N+](=O)[O-]`, for which the “hERG current change (%, negative = inhibition) at 1uM” value turned out to be 8.52%.
`O=C(c1ccccc1)N(C1=NCCCCS1)c1ccccc1`: the “hERG current change (%, negative = inhibition) at 1uM” value came out at 0.649%.
Under `CCOc1cc(CNc2ccccc2SC)ccc1O` stands 1.93%; under `COc1ccc(CCNC(=O)CSc2nnc(Cc3csc(N)n3)n2C)cc1OC`, 3.32%.
`Fc1ccc(CNC(=S)Nc2ccccc2F)cc1`: the “hERG current change (%, negative = inhibition) at 1uM” value is listed as 8.43%.
As for `CCC(=O)Nc1ccc(NC(=O)CSc2nnnn2C(C)C)cc1`, the figure is 4.83%; as for `COC(=O)C(NS(=O)(=O)c1cccc(S(=O)(=O)NC(C(=O)OC)c2ccccc2)c1)c1ccccc1` (stereo not shown), -35.5%; as for `COc1ccccc1Nc1nc(C)c(C(=O)Nc2ccccc2)s1`, 13.6%.
For the compound `Cc1ccc(C2C(/C=C3/SC(=S)NC3=O)=C(c3cccs3)Oc3ccccc32)cc1` (stereo not shown), the “hERG current change (%, negative = inhibition) at 1uM” value is listed as 2.1%.
As for `CSc1ccc(/C=C/c2cc(=O)c3ccccc3[nH]2)cc1`, the “hERG current change (%, negative = inhibition) at 1uM” value is 4.99%.
As to `CSc1nsc(SCC(=O)Nc2ccc(C(C)=O)cc2)n1`, the “hERG current change (%, negative = inhibition) at 1uM” value is recorded as 13%.
In the case of `O=Cc1cn(Cc2ccc(Br)cc2)c2ccccc12`, the “hERG current change (%, negative = inhibition) at 1uM” value was determined as 13.6%.
As for `CCC(C)[C@H](NC(=O)Nc1ccc(Oc2ccccc2)cc1)C(=O)O` (stereo partly shown), the figure is 15.6%.
Under `S=c1[nH]nc(Cc2ccc(Cl)cc2)n1-c1ccc2c(c1)OCCO2` stands 0.474%.
With `Cc1occc1C(=O)Nc1ccc(OCc2ccccc2)cc1`, the “hERG current change (%, negative = inhibition) at 1uM” value was 7.35%.
Consider `COc1ccc(F)c(-c2nc(CN3CCN(C(=O)c4ccco4)CC3)c(C)o2)c1`, for which the “hERG current change (%, negative = inhibition) at 1uM” value turned out to be 1.85%.
As for `COc1ccc(S(=O)(=O)n2[nH]c(=O)c(CCO)c2C)c([N+](=O)[O-])c1`, the figure is 16.2%; as for `Cn1c(SCC(=O)NC(C)(C)C)nnc1-c1cnccn1`, 15.2%; as for `COc1cccc(NC(=O)C2CCN(S(=O)(=O)c3ccc4c(c3)C(C)(C)C(=O)N4C)CC2)c1`, 14.3%.
On to `CC(=O)c1cccc(NC(=O)NN2CCN(C)CC2)c1`, for which the “hERG current change (%, negative = inhibition) at 1uM” value worked out at 18.3%.
Take `COc1ccc(CNC(=O)C2CCN(C(=O)c3sccc3-n3cccc3)CC2)cc1`: the “hERG current change (%, negative = inhibition) at 1uM” value is 18.9%.
Consider `CCOc1ccc(-c2nc(CCl)cs2)cc1OC.Cl`, for which the “hERG current change (%, negative = inhibition) at 1uM” value was 8.03%.
In the case of `O=C(COc1ccccc1F)NNC(=O)Cc1ccc(S(=O)(=O)N2CCOCC2)s1`, the “hERG current change (%, negative = inhibition) at 1uM” value came out at 13%.
Take `O=C1CN(CC(=O)NC(=O)NCc2ccccc2)CCN1`: the “hERG current change (%, negative = inhibition) at 1uM” value is 9.77%.
For `COc1ccccc1NC(=O)CCc1c(C)nc2c(-c3ccc(F)cc3)c(C)nn2c1C`, the “hERG current change (%, negative = inhibition) at 1uM” value is recorded as -0.619%.
With `O=S(=O)(c1ccc(SCCOc2ccc(F)cc2)nc1)N1CCCC1`, the “hERG current change (%, negative = inhibition) at 1uM” value was found to be 7.32%.
Consider `O=C(CCN1C(=O)c2ccccc2S1(=O)=O)Nc1cc(Cl)ccc1Cl`, for which the “hERG current change (%, negative = inhibition) at 1uM” value was -1.7%.
Take `O=C(CSc1nnc(CNC(=O)c2ccccc2F)o1)Nc1ccc2c(c1)OCO2`: the “hERG current change (%, negative = inhibition) at 1uM” value amounted to 0.474%.
Under `COC(=O)c1ccc(OC)cc1OCC(=O)N1CCN(c2ccc(F)cc2)CC1` stands -2.05%.
In the case of `Cc1cccc(-n2c(O)c(/C=C/C=Nc3ccccc3)c(=O)[nH]c2=O)c1`, the “hERG current change (%, negative = inhibition) at 1uM” value turned out to be 3.36%.
As for `CC(CCC(C)OC(=O)c1ccccc1C(=O)O)OC(=O)c1ccccc1C(=O)O` (stereo not shown), the “hERG current change (%, negative = inhibition) at 1uM” value was 10.6%.
On to `COc1ccc(NS(=O)(=O)c2ccc(-n3cnnn3)cc2)cc1OC`, for which the “hERG current change (%, negative = inhibition) at 1uM” value is recorded as 14.3%.
For the compound `COc1ccc(OC)c(-n2c(C)nc3cc(C(=O)O)ccc32)c1`, the “hERG current change (%, negative = inhibition) at 1uM” value is reported as 0.714%.
As for `C(=C\c1ccncc1)/c1ccncc1`, the figure is -0.249%.
On to `COc1ccc(CNC(=O)CCSCc2ccccc2Cl)c(OC)c1`, for which the “hERG current change (%, negative = inhibition) at 1uM” value is 10.1%.
For `CCOc1ncccc1C(=O)OC(C)C(=O)NC(=O)NC1CCCCC1` (stereo not shown), the “hERG current change (%, negative = inhibition) at 1uM” value was -11.1%.
Regarding `COC(=O)c1cccc(NC(=O)CSc2nc(C)cc(=O)[nH]2)c1`, the “hERG current change (%, negative = inhibition) at 1uM” value turned out to be 18.3%.
With `COC(=O)Nc1ccc(S(=O)(=O)N2CCCC(C(=O)N3CCOCC3)C2)cc1` (stereo not shown), the “hERG current change (%, negative = inhibition) at 1uM” value amounted to 1.16%.
On to `CCC(C(=O)NCCc1c[nH]c2ccc(C)cc12)c1ccccc1` (stereo not shown), for which the “hERG current change (%, negative = inhibition) at 1uM” value is listed as 11.8%.
In the case of `CN(Cc1ccccc1)c1ncc(C=O)s1`, the “hERG current change (%, negative = inhibition) at 1uM” value came to 13.7%.
Under `CC1CCN(CCC(=O)Nc2nccs2)CC1` stands 16.3%; under `O=C(CN1C(=O)NC2(CCCC2)C1=O)OCc1cc(=O)n2cc(Br)ccc2n1`, 4.9%; under `CC(=O)Nc1ccc2c(c1)CCCC2`, 11.7%.
As to `CN(C(=O)/C=C/c1ccc([N+](=O)[O-])s1)c1ccccc1`, the “hERG current change (%, negative = inhibition) at 1uM” value was 10.7%.
Under `CC12CCC(=O)N1C(C(=O)Nc1ccccc1N1CCOCC1)CS2` (stereo not shown) stands 9.04%; under `Cc1c(Cl)cccc1NC(=O)C1CCCN(S(C)(=O)=O)C1` (stereo not shown), 15.8%; under `OCCNCC12CC3CC(CC(C3)C1)C2`, 11.1%.
Turning to `O=C(CCc1nnc2ccc(N3CCCC3)nn12)Nc1ccc(F)cc1F`, the “hERG current change (%, negative = inhibition) at 1uM” value is recorded as 16.1%.
For `CCc1nc(SCC(=O)Nc2ccccc2C)n[nH]1`, the “hERG current change (%, negative = inhibition) at 1uM” value was found to be 17.9%.
Turning to `CCn1c(SCC(=O)Nc2cc(C)on2)nnc1-c1cccnc1`, the “hERG current change (%, negative = inhibition) at 1uM” value was determined as 2.2%.
Regarding `O=C(O)C(=O)/C(=C\c1ccc([N+](=O)[O-])cc1)c1ccc2ccccc2n1`, the “hERG current change (%, negative = inhibition) at 1uM” value is on record as -2.09%.
Consider `O=C(CNC(=S)N(CCCN1CCOCC1)Cc1cccs1)NCc1ccccc1Cl`, for which the “hERG current change (%, negative = inhibition) at 1uM” value is -35.5%.
Regarding `C[C@@H](NC(=O)c1ncn(Cc2ccccc2)c1C(=O)N[C@H](C)c1ccccc1)c1ccccc1`, the “hERG current change (%, negative = inhibition) at 1uM” value amounted to 8.14%.
Take `COC(=O)C(NS(=O)(=O)c1ccccc1Cl)c1ccccc1` (stereo not shown): the “hERG current change (%, negative = inhibition) at 1uM” value is on record as 15.5%.
Consider `CC(=O)NC(Cc1cccc(C)c1)C(=O)NC1CCN(S(=O)(=O)c2ccccc2)CC1` (stereo not shown), for which the “hERG current change (%, negative = inhibition) at 1uM” value stood at 1.44%.
On to `CCOC(=O)c1c(-c2ccccc2Cl)csc1NC(=O)c1cc(S(=O)(=O)N2CCOCC2)ccc1C`, for which the “hERG current change (%, negative = inhibition) at 1uM” value was 15%.
For `CC(C)(C)N(Cc1ccccc1)C(=O)COC(=O)Cn1cnc2ccccc2c1=O`, the “hERG current change (%, negative = inhibition) at 1uM” value was found to be 4.17%.
On to `O=C(O)c1ccccc1C(=O)N1CC=C(c2ccccc2)CC1`, for which the “hERG current change (%, negative = inhibition) at 1uM” value worked out at 7.75%.
On to `O=C(CN(C(=O)c1csnn1)c1cccc(C(F)(F)F)c1)NC1CCCC1`, for which the “hERG current change (%, negative = inhibition) at 1uM” value is listed as 13.2%.
As for `O=C(COC(=O)c1ccco1)c1ccc(S(=O)(=O)N2CCCCC2)cc1`, the “hERG current change (%, negative = inhibition) at 1uM” value is reported as 10.4%.
Take `Cc1ccccc1OCc1nc2ccccc2c(=O)n1/N=C/c1cn[nH]c1-c1ccc(Br)cc1`: the “hERG current change (%, negative = inhibition) at 1uM” value came to 14.1%.
On to `CCOC(=O)c1[nH]c2ccccc2c1NC(=O)CN(C)C`, for which the “hERG current change (%, negative = inhibition) at 1uM” value is 15.1%.
In the case of `c1ccc(-c2ccc(-c3[nH]ncc3CN3CCC(N4CCSCC4)CC3)cc2)cc1`, the “hERG current change (%, negative = inhibition) at 1uM” value stood at 1.79%.
Under `COc1ccc(CN2CCC(C)CC2)cc1OCc1ccccc1` stands -5.87%; under `Cc1ccc(SCC(=O)OCC(=O)NCCNC(=O)COC(=O)CSc2ccc(C)c(C)c2)cc1C`, 3.61%.
`COc1ccc(Cn2nnnc2C(c2ccc3ncccc3c2)N2CCN(C3CCCCC3)CC2)cc1` (stereo not shown): the “hERG current change (%, negative = inhibition) at 1uM” value is listed as -79.3%.
For `O=C(Cn1c(=O)oc2ccccc21)N1CCOCC1`, the “hERG current change (%, negative = inhibition) at 1uM” value is given as 16.6%.
In the case of `Cc1c(NC(=O)/C(C#N)=C/c2ccc(-c3ccc(Cl)c(Cl)c3)o2)c(=O)n(-c2ccccc2)n1C`, the “hERG current change (%, negative = inhibition) at 1uM” value is recorded as 4.03%.
Turning to `C=CCN(CC=C)Cc1cc(=O)n2c(-c3ccccc3)csc2n1`, the “hERG current change (%, negative = inhibition) at 1uM” value was found to be 14.9%.
Turning to `CCOC(=O)[C@H]1[C@H]2COc3ccc(Cl)cc3[C@@H]2N2C(=O)c3ccc(F)cc3NC(=O)[C@@]12C`, the “hERG current change (%, negative = inhibition) at 1uM” value amounted to 9.77%.
Take `CCc1ccc(C(=O)NC(C(=O)NCC2CCCO2)C(C)C)cc1` (stereo not shown): the “hERG current change (%, negative = inhibition) at 1uM” value came to 19.9%.
For the compound `COc1cccc(NC(=S)N(CCCN2CCC(C)CC2)Cc2cccs2)c1`, the “hERG current change (%, negative = inhibition) at 1uM” value was -33.5%.
Under `CCOc1[nH]n(-c2ccccc2)c(=O)c1C=NCC(=O)OC` stands -2%.
Turning to `O=C(NCc1ccco1)c1ccc2c(c1)N(Cc1ccc(Cl)cc1)CCS2`, the “hERG current change (%, negative = inhibition) at 1uM” value is on record as 0.373%.
As for `COc1cc(/C=C/C(=O)OCC(=O)NCC(=O)Nc2cccc(C)c2C)ccc1OC(F)F`, the figure is 7.65%.
Under `CCCCNC(=O)c1ccc2c(c1)C(=O)N(Cc1ccncc1)C2=O` stands -0.381%; under `O=C(COc1ncnc2sccc12)Nc1ccc(F)cc1F`, 9.9%.
Regarding `Cc1cc(N2CCOCC2)c2c(N)cc(C)c(C)c2n1`, the “hERG current change (%, negative = inhibition) at 1uM” value was -11.5%.
On to `OCC[C@@H]1C[C@H](O)[C@@H](O)[C@@]2(Cc3ccccc3CCO2)O1`, for which the “hERG current change (%, negative = inhibition) at 1uM” value was found to be 9.03%.
As to `CC(=Nc1ccccc1)c1sc2ccccc2c1O`, the “hERG current change (%, negative = inhibition) at 1uM” value came to 8.35%.
